The other results are listed elsewhere or left out.
Test system: HepG2
Assay: cytotoxicity call (relative viability < 0.9)
Settings: 10 µM

Structure (SMILES)	cytotoxicity call
C[C@H]1CN([C@@H](C)CO)C(=O)c2cc(/C=C/c3ccccc3)cnc2O[C@@H]1CN(C)C(=O)C1CCOCC1	inactive
COCCOC(=O)N1C(=O)[C@@]2(c3cc(C#CC4(O)CCCCCC4)ccc31)[C@H](c1ccc(O)cc1)N1[C@H](c3ccccc3)[C@H](c3ccccc3)OC(=O)[C@H]1[C@@H]2C(N)=O	inactive
COCC(=O)N(C)C[C@H]1Oc2cc(C#Cc3ccccc3)ccc2S(=O)(=O)N([C@@H](C)CO)C[C@H]1C	inactive
Cc1noc(C)c1NC(=O)Nc1ccc2c(c1)C(=O)N([C@H](C)CO)C[C@H](C)[C@H](CN(C)Cc1ccc3c(c1)OCO3)OCCCC[C@@H](C)O2	inactive
C[C@@H]1CN([C@@H](C)CO)C(=O)c2cccc(NC(=O)c3cnccn3)c2O[C@H]1CN(C)S(=O)(=O)c1cn(C)cn1	inactive
Cc1ccc(S[C@]2(C(=O)NCc3ccccc3)CC(=O)N(Cc3cc(C(F)(F)F)cc(C(F)(F)F)c3)[C@@H]2c2ccc(CO)cc2)cc1	inactive
CO[C@H](CN(C)S(=O)(=O)c1ccc(Cl)cc1)[C@H](C)CN([C@@H](C)CO)S(=O)(=O)c1cccc(Cl)c1	inactive
C[C@H](CO)N1C[C@H](C)[C@@H](CN(C)S(=O)(=O)c2cccs2)Oc2c(NC(=O)Cn3cnnn3)cccc2C1=O	inactive
C[C@H](CO)N1C[C@H](C)[C@@H](CN(C)Cc2ccccc2)OCCCC[C@H](C)Oc2ccc(NC(=O)Cc3ccccc3)cc2C1=O	inactive
C[C@H](CO)N1C[C@H](C)[C@@H](CN(C)C(=O)c2ccncc2)Oc2cc(C#C[C@@H](C)O)ccc2S1(=O)=O	inactive
Cc1noc(C)c1NC(=O)N(C)C[C@H]1Oc2ccc(NC(=O)C3CC3)cc2CC(=O)N([C@H](C)CO)C[C@H]1C	inactive
C[C@@H]1CN([C@H](C)CO)C(=O)CCCn2cc(nn2)CO[C@@H]1CN(C)S(=O)(=O)c1ccc(-c2ccccc2)cc1	inactive
C[C@H]1CN([C@@H](C)CO)C(=O)c2cc(NC(=O)CCCN(C)C)ccc2O[C@@H]1CN(C)Cc1ccc(Oc2ccccc2)cc1	active
Cc1noc(C)c1NC(=O)N(C)C[C@H]1OCCCC[C@@H](C)Oc2ccc(NC(=O)c3ccccc3)cc2C(=O)N([C@H](C)CO)C[C@@H]1C	inactive
C[C@H]1CN([C@@H](C)CO)S(=O)(=O)c2ccc(C#Cc3ccc(F)cc3)cc2O[C@@H]1CN(C)S(C)(=O)=O	active
C[C@@H]1CN([C@@H](C)CO)C(=O)c2cc(NS(=O)(=O)c3cccs3)ccc2O[C@@H]1CN(C)Cc1ccncc1	inactive
CN1CCN(C(=O)C[C@H]2CC[C@@H]3[C@H](COC[C@@H](O)CN3S(=O)(=O)c3cccc(Cl)c3)O2)CC1	inactive
CCCN1C(=O)[C@@]2(c3ccc([N+](=O)[O-])cc3)CC(=O)N(CC34CC5CC(CC(C5)C3)C4)[C@@H]2c2ccc(CO)cc21	inactive
COc1ccc(NC(=O)N(C)C[C@@H]2Oc3c(NC(=O)c4ccc(-c5nccs5)cc4)cccc3C(=O)N([C@@H](C)CO)C[C@H]2C)cc1	inactive
COc1ccc(S(=O)(=O)Nc2cccc3c2O[C@@H](CN(C)S(=O)(=O)c2ccccc2)[C@@H](C)CN([C@H](C)CO)C3=O)cc1	inactive

Structure (SMILES)	cytotoxicity call
O=C(C[C@H]1CC[C@@H]2[C@H](COC[C@H](O)CN2S(=O)(=O)c2ccccc2F)O1)NCc1ccccc1F	inactive
CC/C=C/C(=O)N(C[C@@H]1CCCO1)[C@@H]1CC(C(=O)NCCO)=C[C@H](Oc2c(I)cc(CO)cc2OC)[C@H]1O	inactive
Cc1noc(C)c1NC(=O)N(C)C[C@@H]1OCCCC[C@@H](C)Oc2ccc(NC(=O)Nc3ccc(F)cc3)cc2C(=O)N([C@H](C)CO)C[C@H]1C	inactive
COc1cccc(S(=O)(=O)N[C@@H]2CC[C@H](CC(=O)NC3CCC3)O[C@@H]2CO)c1	inactive
Cc1noc(C)c1NC(=O)Nc1ccc2c(c1)C(=O)N([C@@H](C)CO)C[C@@H](C)[C@@H](CN(C)C(=O)c1ccccc1)OCCCC[C@@H](C)O2	inactive
C[C@@H]1CN([C@@H](C)CO)C(=O)CCCn2cc(nn2)CO[C@H]1CN(C)S(=O)(=O)c1ccc2c(c1)OCCCO2	inactive
Cc1noc(C)c1NC(=O)Nc1ccc2c(c1)CC(=O)N([C@H](C)CO)C[C@@H](C)[C@H](CN(C)C(=O)NC(C)C)O2	inactive
Cc1ncc(COP(=O)(O)O)c(C=O)c1O	inactive
O=C(C[C@H]1CC[C@@H]2[C@H](COC[C@@H](O)CN2C(=O)Nc2cccc(Cl)c2)O1)NCc1ccccc1F	active
COCC(=O)N1C[C@@H](C)[C@H](OC)CN(C)C(=O)c2ccc(NC(=O)c3ccc(F)cc3)cc2OC[C@@H]1C	inactive
CO[C@@H](CNS(C)(=O)=O)c1ccsc1	inactive
Cl.Clc1ccc(Cn2c(CN3CCCC3)nc3ccccc32)cc1	inactive
C[C@@H]1CCCCO[C@@H](CN(C)Cc2ccccc2)[C@@H](C)CN([C@@H](C)CO)C(=O)c2cc(NC(=O)c3ccccc3)ccc2O1	inactive
C[C@@H]1CN([C@@H](C)CO)C(=O)c2cccc(NC(=O)Nc3ccc4c(c3)OCO4)c2O[C@@H]1CN(C)Cc1ccc(-c2ccccc2)cc1	active
C[C@H](CO)N1C[C@H](C)[C@H](CN(C)C(=O)Nc2ccc(C(F)(F)F)cc2)Oc2ccc(NC(=O)Nc3ccc(F)cc3)cc2C1=O	inactive
N#C[C@@H]1[C@@H](c2ccc(C#Cc3ccccn3)cc2)[C@H](CO)N1C(=O)CN1CCOCC1	inactive
Cc1ccc(C(=O)Nc2ccc(Nc3ccccc3)cc2)c(C)c1	inactive
N[C@@]1(C(=O)O)CO[C@H]2[C@H](C(=O)O)[C@H]21	inactive
Cc1noc(C)c1NC(=O)N(C)C[C@H]1Oc2c(NC(=O)c3ccc(-c4nccs4)cc3)cccc2C(=O)N([C@H](C)CO)C[C@@H]1C	inactive

From the antibiotic and cytotoxicity screens of Wong et al. (2023)
